Literature values in paper PMC5742115, “Pharmacophore Modeling and in Silico/in Vitro Screening for Human Cytochrome P450 11B1 and Cytochrome P450 11B2 Inhibitors” (Frontiers in Chemistry, 2017).

Tests used:
[1] = test system: CYP11B1; details: reported activity, supplementary Table 1; ref Voets et al., 2006; cited from earlier work
[2] = test system: CYP11B2; details: reported activity, supplementary Table 1; ref Voets et al., 2006; cited from earlier work

SMILES | IC50 [1] [nM] | IC50 [2] [nM]
CC1=C(c2cccnc2)CCc2ccccc21 [CHEMBL206283] | 1270 | 7
CC1CC(c2cccnc2)=Cc2ccccc21 (centres unmarked) [CHEMBL206070] | 1290 | 13
C1=C(c2cccnc2)Cc2ccccc21 [CHEMBL205782] | 2390 | 13
C1=C(c2cccnc2)CCc2ccccc21 [CHEMBL205881] | 1730 | 7
CC1Cc2ccccc2C=C1c1cccnc1 (centres unmarked) [CHEMBL206550] | 503 | 5
COc1ccc2c(c1)C=C(c1cccnc1)C2 [CHEMBL206300] | 5680 | 11
CCC1=C(c2cccnc2)CCc2ccccc21 [CHEMBL205503] | 2120 | 30
